This is a noisy data set.
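Also: [psi-pin-] Saccharomyces cerevisiae expressing SupN fusions, induced by 100 µM Cu2SO4, selected 7 d at 30 °C without adenine and uracil, scored by deep sequencing of output versus input.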

One data set in a line: amyloid nucleation score relative to library mode (yeast Sup35 reporter selection) (log enrichment difference); higher = more amyloid nucleation; sequences are the first 22 residues of the Bri2 peptide extended by up to 12 random residues. As to conditions: random library (experiment): 1;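 active = nucleation score significantly above 0 at FDR 0.05; inactive = not significantly above 0 or absent from output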.
With EASNCFAIRHFENKFAVETLICRTTLAGLWVTTM, the amyloid nucleation score entry is “inactive”. On the same count and under the same terms, the entry for EASNCFAIRHFENKFAVETLICRTVDTGVDRWLA is “inactive”.

On to EASNCFAIRHFENKFAVETLICRTVFTSIEDCAA, for which the amyloid nucleation score entry was “inactive”. With EASNCFAIRHFENKFAVETLICRTVHRKVSIGP, the amyloid nucleation score entry is “inactive”. Consider EASNCFAIRHFENKFAVETLICRTVLGAYQVLPA, for which the amyloid nucleation score entry is “inactive”. Still for that read-out and setting: the entry for EASNCFAIRHFENKFAVETLICRTWLL is “inactive”. On the same count and under the same terms, the entry for EASNCFAIRHFENKFAVETLICRTWLNPNWYCKK is “inactive”; for EASNCFAIRHFENKFAVETLICRTYDESQSARIG it is “inactive”.

For the sequence EASNCFAIRHFENKFAVETLICRTYDLFRVVRWP, the amyloid nucleation score result is “inactive”. EASNCFAIRHFENKFAVETLICRTYGDPILSGLR: the amyloid nucleation score entry is “inactive”. With EASNCFAIRHFENKFAVETLICRVAGATVDARRW, the amyloid nucleation score result was “inactive”. As for EASNCFAIRHFENKFAVETLICRVASDCAWPEGD, the amyloid nucleation score entry was “inactive”. EASNCFAIRHFENKFAVETLICRVCDRIY: the amyloid nucleation score result was “inactive”. Same read-out and setting: with EASNCFAIRHFENKFAVETLICRVCSIILCQPSC the figure was 5.72. With EASNCFAIRHFENKFAVETLICRVCVYPVDISSG, the amyloid nucleation score entry is “inactive”. For EASNCFAIRHFENKFAVETLICRVDGAVGEGAPG, the amyloid nucleation score result was “inactive”.

EASNCFAIRHFENKFAVETLICRVDRSCKWSCDW gave an amyloid nucleation score of 3.16. In the case of EASNCFAIRHFENKFAVETLICRVECPPGRMVYQ, the amyloid nucleation score was -0.0194. Same read-out and setting: the figure for EASNCFAIRHFENKFAVETLICRVEGNPNEKQPV is 5.37.

Sequence EASNCFAIRHFENKFAVETLICRVETVSRGWCTW returned an amyloid nucleation score of 2.41.

EASNCFAIRHFENKFAVETLICRVFESIMHHGLS: the amyloid nucleation score entry is “inactive”. Regarding EASNCFAIRHFENKFAVETLICRVFSVLL, the amyloid nucleation score result was “inactive”. As to EASNCFAIRHFENKFAVETLICRVFWWLRVASGD, the amyloid nucleation score entry is “inactive”. Same read-out and setting: the entry for EASNCFAIRHFENKFAVETLICRVGSLGRHKSRP is “inactive”; for EASNCFAIRHFENKFAVETLICRVGTGGGAEGRK it is “inactive”; for EASNCFAIRHFENKFAVETLICRVHPQSTRGRLG it is 0.655. Same read-out and setting: with EASNCFAIRHFENKFAVETLICRVIC the entry was “inactive”; with EASNCFAIRHFENKFAVETLICRVICRF, “inactive”. Same read-out and setting: the entry for EASNCFAIRHFENKFAVETLICRVIILSF is “inactive”. With EASNCFAIRHFENKFAVETLICRVILKYPRNPNW, the amyloid nucleation score entry was “inactive”.

With EASNCFAIRHFENKFAVETLICRVLGWFGHVHGM, the amyloid nucleation score entry is “inactive”.

For EASNCFAIRHFENKFAVETLICRVLSHV, the amyloid nucleation score came to 1.79. Same read-out and setting: with EASNCFAIRHFENKFAVETLICRVLSTASPRVGC the entry was “inactive”; with EASNCFAIRHFENKFAVETLICRVLTCISGLGAL, “inactive”. Turning to EASNCFAIRHFENKFAVETLICRVLVLRATGSTW, the amyloid nucleation score entry is “inactive”. Still for that read-out and setting: the entry for EASNCFAIRHFENKFAVETLICRVNRLLRCRTW is “inactive”. The same measure, in the same setting: the entry for EASNCFAIRHFENKFAVETLICRVPCCPMVCVFI is “inactive”.

The same data set, now with this note: random library (experiment): 2.
In the case of EASNCFAIRHFENKFAVETLICRTVSYF, the amyloid nucleation score result was “inactive”. Same read-out and setting: with EASNCFAIRHFENKFAVETLICRVCEDTLLLPYS the entry was “inactive”; with EASNCFAIRHFENKFAVETLICRVCTSGYVSNMQ, 5.4; with EASNCFAIRHFENKFAVETLICRVEDFR, “inactive”. With EASNCFAIRHFENKFAVETLICRVFIRLFLRMSG, the amyloid nucleation score entry is “inactive”. Still for that read-out and setting: the entry for EASNCFAIRHFENKFAVETLICRVG is “inactive”. With EASNCFAIRHFENKFAVETLICRVGDRVKELFLR, the amyloid nucleation score result is “inactive”.

On to EASNCFAIRHFENKFAVETLICRVGWPHFFMSHA, for which the amyloid nucleation score entry was “inactive”. Still for that read-out and setting: the entry for EASNCFAIRHFENKFAVETLICRVHLAFRWYRGR is “inactive”; for EASNCFAIRHFENKFAVETLICRVM it is 8.29; for EASNCFAIRHFENKFAVETLICRVMAGASSVVCK it is “inactive”. Turning to EASNCFAIRHFENKFAVETLICRVMG, the amyloid nucleation score result is “inactive”. As for EASNCFAIRHFENKFAVETLICRVMSMSSPFKTV, the amyloid nucleation score entry is “inactive”. Regarding EASNCFAIRHFENKFAVETLICRVN, the amyloid nucleation score result is “inactive”. On the same count and under the same terms, the entry for EASNCFAIRHFENKFAVETLICRVNEAFGDGRP is “inactive”; for EASNCFAIRHFENKFAVETLICRVPNLYNCCSWG it is “inactive”.

The same data set, now with this note: random library (experiment): 3.
Turning to EASNCFAIRHFENKFAVETLICRTVSAGMYMVFR, the amyloid nucleation score result is “inactive”. EASNCFAIRHFENKFAVETLICRTWCYASCTHGR displayed an amyloid nucleation score of 1.64. Regarding EASNCFAIRHFENKFAVETLICRTWT, the amyloid nucleation score result is “inactive”. With EASNCFAIRHFENKFAVETLICRTWVGGCCDMVR, the amyloid nucleation score result is “inactive”. As for EASNCFAIRHFENKFAVETLICRVASWIVGTRGL, the amyloid nucleation score is 0.632. Still for that read-out and setting: with EASNCFAIRHFENKFAVETLICRVCVSNGKRCPA the entry was “inactive”; with EASNCFAIRHFENKFAVETLICRVETDWRWTVWD, 4.35. On the same count and under the same terms, with EASNCFAIRHFENKFAVETLICRVGDGVAVNWMQ the entry was “inactive”. Same read-out and setting: with EASNCFAIRHFENKFAVETLICRVGLPAEVGLFR the entry was “inactive”; with EASNCFAIRHFENKFAVETLICRVGTAWRSWGYG, “inactive”. Regarding EASNCFAIRHFENKFAVETLICRVHSYVRSRSQR, the amyloid nucleation score result is “inactive”. As to EASNCFAIRHFENKFAVETLICRVI, the amyloid nucleation score entry was “inactive”. Regarding EASNCFAIRHFENKFAVETLICRVIMYVGGRGLE, the amyloid nucleation score result is “inactive”. Same read-out and setting: with EASNCFAIRHFENKFAVETLICRVKFSMFMIEIW the entry was “inactive”; with EASNCFAIRHFENKFAVETLICRVKPSRGMLQNG, “inactive”. On the same count and under the same terms, with EASNCFAIRHFENKFAVETLICRVLKLSRDVGWR the entry was “inactive”. For the sequence EASNCFAIRHFENKFAVETLICRVLRSRINRRAL, the amyloid nucleation score entry is “inactive”. The same measure, in the same setting: with EASNCFAIRHFENKFAVETLICRVLSLRSKSWVW the entry was “inactive”; with EASNCFAIRHFENKFAVETLICRVLWWQRRNADC, “inactive”.

Sequence EASNCFAIRHFENKFAVETLICRVNNAYCCFYGR gave an amyloid nucleation score of 7.42. The same measure, in the same setting: with EASNCFAIRHFENKFAVETLICRVNSSN the entry was “inactive”.
